# The supplement of paper PMC12217912
# The list shows a part of the results. The full chains were built here from the parent and the listed change. Values near 0.05 are background.
# B1: TEV protease; numbered along this chain (parent)
# chain: MGESLFKGPRDYNPISSSICHLTNESDGHTTSLYGIGFGPFIITNKHLFRRNNGTLVVQSLHGVFKVKDTTTLQQHLVDGRDMIIIRMPKDFPPFPQKLKFREPQREERICLVTTNFQTKSMSSMVSDTSCTFPSGDGIFWKHWIQTKDGQCGSPLVSTRDGFIVGIHSASNFTNTNNYFTSVPKNFMELLTNQEAQQWVSGWRLNADSVLWGGHKVFMVKPEEPFQPVKEATQL
# Variants of: B1
# Test: raw area under fraction-flipped curve 0-4 h after induction (AUC4h, not background-subtracted), DNA-recorder readout of cleavage of the substrate (dimensionless); higher = more cleavage of the substrate by the protease variant
# Details: temperature: 34 °C; time window: 0-4 h after rhamnose induction
# Procedure: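 In vivo DNA recorder in E. coli TOP10(DE3) ΔrhaA at 34 °C. Each TEVp single-site mutant (parent TEVp 0) is paired with a single-site variant of the 7-mer TEVs (canonical ENLYFQ|S). The substrate sits between flexible linkers in a Bxb1-sfGFP-TEVs-SsrA fusion, so cleavage stabilises Bxb1 and speeds flipping of a recombination array, read by NGS. The value is the raw area under the fraction-flipped curve over 0-4 h after rhamnose induction (AUC4h), with ≥20 reads per time point. It is not background-subtracted; inactive controls average about 0.047.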
# 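Note: Bxb1 expression induced with 0.2% (w/v) L-rhamnose at OD600 near 0.5, cultures sampled hourly, flipped fraction per protease–substrate barcode pair counted by paired-end Illumina sequencing.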
Variant,area with substrate ECLYFQS,area with substrate EDLYFQS,area with substrate EELYFQS,area with substrate EGLYFQS,area with substrate EHLYFQS,area with substrate ELLYFQS,area with substrate EWLYFQS,area with substrate EYLYFQS,area with substrate EMLYFQS,area with substrate EQLYFQS,area with substrate ESLYFQS,area with substrate EVLYFQS,area with substrate EFLYFQS,area with substrate EILYFQS,area with substrate EPLYFQS,area with substrate ERLYFQS,area with substrate ETLYFQS,area with substrate EKLYFQS
V229I,0.125,0.131,0.137,0.0881,0.0939,0.0987,0.105,0.123,,,,,,,,,,
V229M,0.108,,0.107,0.0833,0.0937,0.114,0.0928,,0.0968,0.11,0.0896,0.113,,,,,,
K230F,0.0873,,0.0958,0.0856,0.0805,,,,0.0972,0.0918,0.103,0.0911,0.099,0.0704,0.12,0.0902,0.114,
K230I,0.111,0.135,,0.0855,0.0841,0.0709,,,0.122,0.0971,0.0909,0.0931,,0.0888,,,,0.104
K230P,0.0953,0.131,0.121,0.106,0.115,0.0788,,,,0.161,0.0974,0.102,,0.0994,,0.081,0.101,0.109
E231Q,0.111,0.106,,0.0948,,,0.0872,,,0.104,0.1,0.0901,,0.111,,,,0.0654
T233N,0.128,0.142,0.101,0.106,0.127,,0.0965,,0.112,,0.0995,,,0.114,0.176,,,
Q234F,0.111,0.101,,,0.116,,,,0.0893,,0.0861,,,0.0651,,0.113,,0.0806
Q234L,0.0781,,0.108,,,0.109,0.0568,0.11,0.123,0.112,0.104,0.0828,0.0924,0.0633,0.0999,,0.102,0.066
P9Y,,0.141,,0.108,0.1,,,0.125,,0.102,0.11,0.105,,0.0992,0.118,0.147,,0.117
D11H,,0.138,0.135,0.0741,0.101,0.0677,,,,0.131,0.122,0.15,,0.106,0.139,0.111,0.105,0.101
I19S,,0.104,,,0.114,,,,,,0.101,0.0878,0.0901,,,,,0.0941
L22N,,0.0506,,,0.0482,0.0454,,0.0462,0.0466,0.048,0.0546,0.0518,,0.0466,0.0545,0.0559,,0.0477
T31K,,0.0731,0.0696,0.0948,,,0.0685,0.0685,0.0663,0.0751,0.0703,,0.0516,0.083,,0.0595,0.0688,0.0563
T31N,,0.0637,0.115,0.0853,0.0939,0.0759,0.0645,,0.092,0.105,0.0967,0.0889,0.102,0.0863,0.0532,0.0936,0.0987,0.0918
F38G,,0.036,,0.0279,,0.0321,,,0.0442,,,,,,,,,
G39C,,0.0451,,0.0351,0.0545,,0.0407,,,0.0475,0.0451,,0.0373,0.0426,0.0319,0.0561,,0.0389

Variant,area with substrate ECLYFQS,area with substrate EDLYFQS,area with substrate EELYFQS,area with substrate EGLYFQS,area with substrate EHLYFQS,area with substrate ELLYFQS,area with substrate EWLYFQS,area with substrate EYLYFQS,area with substrate EMLYFQS,area with substrate EQLYFQS,area with substrate ESLYFQS,area with substrate EVLYFQS,area with substrate EFLYFQS,area with substrate EILYFQS,area with substrate EPLYFQS,area with substrate ERLYFQS,area with substrate ETLYFQS,area with substrate EKLYFQS
I43W,,0.0588,0.0689,,0.0491,0.0645,,0.0581,,0.0383,0.0686,0.0561,,,,0.0599,0.0584,0.0244
H47M,,0.0818,0.0596,0.0761,0.0643,0.0424,0.0683,0.0838,0.0634,0.059,0.0664,0.0773,0.0457,0.053,0.0562,,,0.0478
N52K,,0.0642,0.0596,0.0705,,0.075,0.0621,0.0722,0.0684,0.07,0.0708,0.0622,,0.0914,0.0822,0.066,,
S60R,,0.116,0.103,0.0902,,0.0653,,,0.0901,0.107,0.0898,0.0964,0.138,,0.109,0.0748,,
H62R,,0.114,0.106,,,,,,0.0794,,,0.115,,0.0911,,,0.0988,0.157
T70H,,0.0756,,0.0678,,0.0705,,0.0896,0.0933,0.0754,0.0772,0.0409,,0.0991,,0.0611,,
L77W,,0.0931,,,0.0771,,0.0688,,0.138,,0.0217,0.0672,,0.0651,0.0677,0.0693,0.0774,
R81K,,0.167,0.123,,,0.0878,,0.105,,0.129,0.11,0.0916,,0.0969,,,,
D82G,,0.0215,,,,,0.054,,0.0563,0.0611,,0.0468,,0.0546,0.065,,,0.0416
F92Y,,0.156,0.143,,,0.0662,,0.122,,0.117,0.133,0.0981,0.0961,0.0913,,0.104,0.118,0.111
E107H,,0.126,,,,0.12,,,,0.101,,,,0.101,,0.18,,
C111W,,0.0945,,0.0891,0.103,,0.0831,0.0877,,,0.0992,0.0697,,,0.0877,0.116,,0.0565
T115F,,0.118,0.13,,0.112,0.0777,,,0.108,0.112,0.106,,,0.0796,0.112,,0.081,0.0739
F117R,,0.0813,0.14,,0.105,0.101,0.0909,0.13,0.115,,,,,,0.117,,0.12,
S121P,,0.143,,,,0.0829,0.0844,,0.116,,0.0887,,,0.123,0.144,0.104,,
S124I,,0.113,0.102,0.0027,0.132,0.0797,0.105,,0.102,,0.103,0.0679,0.0842,,0.1,,,0.107
